No constants are given. Whether binding was seen depends on the method and setting. In cells and extracts the contact can be indirect. Some binding calls cover weakened binding; strength is not graded here. Sequences can lack the tags named with a protein.

For assay [1], the target named is T1, sfGFP-HOOK3 [1-718]-3×FLAG (human) (UniProt Q86VS8).
T1 sequence: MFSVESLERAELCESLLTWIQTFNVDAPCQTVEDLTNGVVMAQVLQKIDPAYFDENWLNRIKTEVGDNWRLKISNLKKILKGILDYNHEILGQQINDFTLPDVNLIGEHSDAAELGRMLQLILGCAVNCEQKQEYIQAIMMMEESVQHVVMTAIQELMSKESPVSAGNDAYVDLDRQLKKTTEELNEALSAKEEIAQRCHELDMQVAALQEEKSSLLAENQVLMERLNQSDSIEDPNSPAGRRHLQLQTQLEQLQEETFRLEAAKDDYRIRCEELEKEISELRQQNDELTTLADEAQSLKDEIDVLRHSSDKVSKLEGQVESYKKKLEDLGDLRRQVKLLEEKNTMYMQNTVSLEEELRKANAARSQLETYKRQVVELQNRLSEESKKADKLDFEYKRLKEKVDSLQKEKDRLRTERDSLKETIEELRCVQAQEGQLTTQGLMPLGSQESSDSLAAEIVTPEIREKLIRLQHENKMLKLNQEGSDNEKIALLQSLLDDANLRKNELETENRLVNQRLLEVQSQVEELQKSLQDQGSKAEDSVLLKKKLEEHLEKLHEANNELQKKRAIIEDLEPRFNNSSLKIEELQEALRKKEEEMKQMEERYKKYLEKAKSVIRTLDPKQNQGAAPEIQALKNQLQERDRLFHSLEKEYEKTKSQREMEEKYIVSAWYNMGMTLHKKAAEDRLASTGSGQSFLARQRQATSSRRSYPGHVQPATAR
Briefly: co-IP; transiently transfected HEK293-T cells; anti-FLAG M2 agarose, 2 hr, 4°C; elution with 3×FLAG peptide; Western blots with α-HC, α-p150, α-FAM160A2, α-KIF1C. In general terms: A western blot detects proteins with antibodies after separation by electrophoresis.

Assay [2] addresses T2, sfGFP-HOOK3 [553-718] with 3×FLAG (human) (UniProt Q86VS8).
T2 sequence: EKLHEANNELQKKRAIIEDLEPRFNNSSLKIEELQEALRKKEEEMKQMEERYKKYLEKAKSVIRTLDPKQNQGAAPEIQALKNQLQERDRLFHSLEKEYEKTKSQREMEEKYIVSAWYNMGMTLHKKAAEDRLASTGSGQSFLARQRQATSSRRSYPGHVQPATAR
The assay is described as above.

B1: KIF1C (protein, UniProt O43896 1-1103)
chain: MAGASVKVAVRVRPFNARETSQDAKCVVSMQGNTTSIINPKQSKDAPKSFTFDYSYWSHTSTEDPQFASQQQVYRDIGEEMLLHAFEGYNVCIFAYGQTGAGKSYTMMGRQEPGQQGIVPQLCEDLFSRVSENQSAQLSYSVEVSYMEIYCERVRDLLNPKSRGSLRVREHPILGPYVQDLSKLAVTSYADIADLMDCGNKARTVAATNMNETSSRSHAVFTIVFTQRCHDQLTGLDSEKVSKISLVDLAGSERADSSGARGMRLKEGANINKSLTTLGKVISALADMQSKKRKSDFIPYRDSVLTWLLKENLGGNSRTAMIAALSPADINYEETLSTLRYADRTKQIRCNAIINEDPNARLIRELQEEVARLRELLMAQGLSASALEGLKTEEGSVRGALPAVSSPPAPVSPSSPTTHNGELEPSFSPNTESQIGPEEAMERLQETEKIIAELNETWEEKLRKTEALRMEREALLAEMGVAVREDGGTVGVFSPKKTPHLVNLNEDPLMSECLLYHIKDGVTRVGQVDMDIKLTGQFIREQHCLFRSIPQPDGEVVVTLEPCEGAETYVNGKLVTEPLVLKSGNRIVMGKNHVFRFNHPEQARLERERGVPPPPGPPSEPVDWNFAQKELLEQQGIDIKLEMEKRLQDLENQYRKEKEEADLLLEQQRLYADSDSGDDSDKRSCEESWRLISSLREQLPPTTVQTIVKRCGLPSSGKRRAPRRVYQIPQRRRLQGKDPRWATMADLKMQAVKEICYEVALADFRHGRAEIEALAALKMRELCRTYGKPDGPGDAWRAVARDVWDTVGEEEGGGAGSGGGSEEGARGAEVEDLRAHIDKLTGILQEVKLQNSSKDRELQALRDRMLRMERVIPLAQDHEDENEEGGEVPWAPPEGSEAAEEAAPSDRMPSARPPSPPLSSWERVSRLMEEDPAFRRGRLRWLKQEQLRLQGLQGSGGRGGGLRRPPARFVPPHDCKLRFPFKSNPQHRESWPGMGSGEAPTPLQPPEEVTPHPATPARRPPSPRRSHHPRRNSLDGGGRSRGAGSAQPEPQHFQPKKHNSYPQPPQPYPAQRPPGPRYPPYTTPPRMRRQRSAPDLKESGAAV
On to B1, for which the binding result in assay [1] and in assay [2] was “binds” each time.

B2: FAM160A2/FHIP (protein, UniProt Q8N612 1-972)
chain: MERMNWLSRLASRGPGHRIPQGANLQTPVMADPETCLMVFKNHWSQVVRILERQGPRAAPGGADDLSAVRNHTYQMLTLLAEDRAVPSAPTGPGPLLEFALHEDLLTRVLTWQLQWDELGDGVEERRAEQLKLFEMLVSEARQPLLRHGPVREALLTLLDACGRPVPSSPALDEGLVLLLSQLCVCVAQEPSLLEFFLQPPPEPGAAPRLLLFSRLVPFVHREGTLGQQARDALLLLMALSAGSPTVGRYIADHSYFCPVLATGLSALYSSLPRKIEVPGDDWHCLRREDWLGVPALALFMSSLEFCNAVIQVAHPLVQKQLVDYIHNGFLVPVMGPALHKTSVEEMIASTAYLELFLRSISEPALLRTFLRFLLLHRHDTHTILDTLVARIGSNSRLCMVSLSLFRTLLNLSCEDVLLQLVLRYLVPCNHVMLSQKPAVRDVDLYGRAADKFLSLIPRCCRHHAPSPPRPEHASWARGPGSPSVDSSSVTTVPRPSTPSRLALFLRQQSLGGSESPGPAPCSPGLSASPASSPGRRPTPAEEPGELEDNYLEYLREARRGVDRCVRACRTWSAPYDGERPSPEPSPFGSRTKKRSLLPEEDRNNVGEGEEEELGRRGRAGGAGEGPGHLPPPQLNGVPGSWPEGAKKVRLVPKEGAGELLEGISEGMAGLEGFGQELRELEVALSNGGTGSESPLEPPLPLEEEEAYESFTCPPEPPGPFLSSPLRTLNQLPSQPFTGPFMAVLFAKLENMLQNSVYVNFLLTGLVAQLACHPQPLLRSFLLNTNMVFQPSVKSLLQVLGSVKNKIENFAASQEDFPALLSKAKKYLIARGKLDWAEGPAAGPAPRRSDPLVKSRRPSLGELLLRHAHSPTRARQAAQLVLQPGRDGAGLGLSGGSPGASTPVLLTRGGAPERQGEALRVKNAVYCAVIFPEFLKELAAISQAHAVTSPFLLETSEEGSGPLISGCGPLNP
Consider B2, for which the binding entry in assay [1] and in assay [2] was “binds” in each case.

These data come from publication PMC5533585.
